Test results taken from the supplement of paper PMC4967469.
Lines with a small IC50 respond at low doses; a limit (>, <) means that the fit lies beyond the doses tested. AUC, from the same fit, is the share of area under the viability curve across the 256-fold dose range: 1 means no effect, lower means more sensitive. For some assays here: Where the top dose is marked as inferred, it was calculated from the reported fits. For some assays here: An entry number marks a drug with two screens in the source, which often give different values.

Legend:
Test in all cases: Viability of human cancer cell lines after 72 h of drug (GDSC screen)
Zibotentan = compound: COc1nc(C)cnc1NS(=O)(=O)c1cccnc1-c1ccc(-c2nnco2)cc1 [Zibotentan]; conditions: top dose 20 µM; top dose inferred
Procedure: (§1)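 Human cancer cell lines in 384-well plates, medium with 10% serum, drug for 72 h over a 256-fold dose range (nine 2-fold or five 4-fold steps up to the top dose). Adherent lines were fixed and stained with the nucleic acid dye Syto60, suspension lines read with resazurin; signal relative to control wells, capped at 0 and 100%. One two-parameter sigmoid per drug and line, fitted in a mixed model over all curves with the slope shared within a line.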

CP466722 = compound: COc1cc2ncnc(-n3nc(-c4ccccn4)nc3N)c2cc1OC [CP466722]; conditions: top dose 16 µM; top dose inferred
Procedure: as §1

ABT-869 = compound: Cc1ccc(F)c(NC(=O)Nc2ccc(-c3cccc4[nH]nc(N)c34)cc2)c1 [ABT-869]; conditions: top dose 1.024 µM; top dose inferred
Procedure: as §1

CHIR-99021 = compound: Cc1cnc(-c2cnc(NCCNc3ccc(C#N)cn3)nc2-c2ccc(Cl)cc2Cl)[nH]1 [CHIR-99021]
Procedure: as §1

GSK269962A = compound: CCn1c(-c2nonc2N)nc2cnc(Oc3cccc(NC(=O)c4ccc(OCCN5CCOCC5)cc4)c3)cc21 [GSK269962A]; conditions: top dose inferred
Procedure: as §1

CMK = compound: Cc1ccc(-c2c(C(=O)CCl)n(CCCO)c3ncnc(N)c23)cc1 [CMK]; conditions: top dose 4 µM; top dose inferred
Procedure: as §1

QL-X-138 = compound: C=CC(=O)Nc1cc(-n2c(=O)ccc3cnc4ccc(-c5cn[nH]c5)cc4c32)ccc1C [QL-X-138]; conditions: top dose 10.24 µM; top dose inferred
Procedure: as §1

MPS-1-IN-1 = compound: COc1cc(N2CCC(O)CC2)ccc1Nc1cc(Nc2ccccc2S(=O)(=O)C(C)C)c2cc[nH]c2n1 [MPS-1-IN-1]; conditions: top dose 20 µM; top dose inferred
Procedure: as §1

Thapsigargin = compound: C/C=C(/C)C(=O)O[C@H]1C(C)=C2[C@H]([C@@H]1OC(=O)CCCCCCC)[C@@](C)(OC(C)=O)C[C@H](OC(=O)CCC)[C@@]1(O)[C@H]2OC(=O)[C@@]1(C)O [Thapsigargin]; conditions: top dose 0.512 µM; top dose inferred
Procedure: as §1

(5Z)-7-Oxozeaenol = compound: COc1cc(O)c2c(c1)/C=C/C[C@H](O)[C@H](O)C(=O)/C=C\C[C@H](C)OC2=O [(5Z)-7-Oxozeaenol]; conditions: top dose 10 µM; top dose inferred
Procedure: as §1

Cytarabine = compound: Nc1ccn([C@@H]2O[C@H](CO)[C@@H](O)[C@@H]2O)c(=O)n1 [Cytarabine]; conditions: top dose 2 µM
Procedure: as §1

ABT-888 = compound: C[C@]1(c2nc3c(C(N)=O)cccc3[nH]2)CCCN1 [ABT-888]; conditions: top dose 5 µM; top dose inferred
Procedure: as §1

KU-55933 = compound: O=c1cc(-c2cccc3c2Sc2ccccc2S3)oc(N2CCOCC2)c1 [KU-55933]; conditions: top dose 10 µM
Procedure: as §1

[1] = top dose 2.56 µM, screen: GDSC drug entry 154
[2] = top dose 2.5 µM, screen: GDSC drug entry 127
[3] = top dose 10 µM, screen: GDSC drug entry 1241, top dose inferred
[4] = top dose 5 µM, screen: GDSC drug entry 1192

Row | Cell Line | AUC (Zibotentan) | IC50 (Zibotentan) [nM] | AUC (CP466722) | IC50 (CP466722) [nM] | AUC (ABT-869) | IC50 (ABT-869) [nM] | AUC (CHIR-99021; [1]) | IC50 (CHIR-99021; [1]) [nM] | AUC (GSK269962A; [2]) | IC50 (GSK269962A; [2]) [nM] | AUC (CMK) | IC50 (CMK) [nM] | AUC (QL-X-138) | IC50 (QL-X-138) [nM] | AUC (MPS-1-IN-1) | IC50 (MPS-1-IN-1) [nM] | AUC (Thapsigargin) | IC50 (Thapsigargin) [nM] | AUC (CHIR-99021; [3]) | IC50 (CHIR-99021; [3]) [nM] | AUC (GSK269962A; [4]) | IC50 (GSK269962A; [4]) [nM] | AUC ((5Z)-7-Oxozeaenol) | IC50 ((5Z)-7-Oxozeaenol) [nM] | AUC (Cytarabine) | IC50 (Cytarabine) [nM] | AUC (ABT-888) | IC50 (ABT-888) [nM] | AUC (KU-55933) | IC50 (KU-55933) [nM]
1 | SIG-M5 (acute myeloid leukaemia, suspension) | 0.993 | > 20000 | 0.671 | 2620 | 0.994 | > 1020 | 0.994 | > 2560 | 0.976 | > 2500 | 0.913 | 3190 | 0.392 | 349 | 0.7 | 3870 | 0.138 | 3.76 |  |  |  |  |  |  |  |  |  |  |  | 
2 | SU-DHL-1 (anaplastic large cell lymphoma, suspension) | 0.997 | > 20000 | 0.763 | 4360 | 0.996 | > 1020 | 0.992 | > 2560 | 0.974 | > 2500 | 0.892 | 2410 | 0.452 | 490 | 0.317 | 451 | 0.995 | > 512 |  |  |  |  |  |  |  |  |  |  |  | 
3 | SW872 (soft tissue, adherent) | 0.988 | > 20000 | 0.907 | > 16000 | 0.989 | > 1020 | 0.959 | > 2560 | 0.709 | 567 | 0.949 | > 4000 | 0.882 | 9050 | 0.952 | > 20000 | 0.284 | 8.39 | 0.829 | 5430 | 0.646 | 758 | 0.11 | 40.8 |  |  |  |  |  | 
4 | TALL-1 (T-cell lymphoblastic leukaemia, suspension) | 0.99 | > 20000 | 0.839 | 10200 | 0.986 | > 1020 | 0.99 | > 2560 | 0.947 | > 2500 | 0.848 | 2770 | 0.899 | > 10200 | 0.929 | > 20000 | 0.34 | 11.8 |  |  |  |  |  |  |  |  |  |  |  | 
5 | TE-441-T (rhabdomyosarcoma, adherent) | 0.989 | > 20000 | 0.812 | 8130 | 0.803 | 486 | 0.989 | > 2560 | 0.981 | > 2500 | 0.831 | 2390 | 0.569 | 980 | 0.878 | 19000 | 0.606 | 61.9 |  |  |  |  |  |  |  |  |  |  |  | 
6 | huH-1 (liver, adherent) | 0.984 | > 20000 | 0.984 | > 16000 | 0.98 | > 1020 | 0.984 | > 2560 |  |  |  |  | 0.984 | > 10200 | 0.984 | > 20000 | 0.548 | 44.5 | 0.947 | > 10000 | 0.891 | > 5000 | 0.915 | > 10000 | 0.724 | 639 | 0.98 | > 5000 | 0.934 | > 10000
